# Source: the supplement of paper PMC10126150
# Sequences with one replicate were seen in a single cluster, so their values are uncertain.
# System: ATP
# Test: switch fluorescence ratio, 500 uM ATP over buffer (Cy3 cluster intensity, sum of 5 cycles each) (fold (ratio)); higher = stronger signal-on switching upon ATP binding; sequences stand for … in TCGTCGGCAGCGTCAGATGTGTATAAGAGACAGTTTTTTTTTTTTTTTTTTTTTTTTT…TC
# Conditions: aptamer strand: ATP DNA aptamer (quencher-CACCTGGGGGAGTATTGCGGAGGAAGG + anchor), 100 nM annealed; ATP concentration: 500 uM; one replicate
# Procedure, shortened: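 Values give the fluorescence ratio for each switch-domain sequence, averaged from per-cluster ratios of summed target-cycle to summed buffer-cycle Cy3 intensity. The Cy3-labelled switching-strand clusters sat on a modified Illumina MiSeq flow-cell, were annealed to 100 nM quencher-labelled ATP aptamer, and were imaged in selection buffer, then after 15 min with 500 uM ATP at 22 °C. Five cycles ran with NaOH stripping and re-annealing between them, and clusters outside 100-1000 RFU were excluded.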
# 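Also: ATP exposure 15 min at 22 °C before imaging.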
row,Sequence,switch fluorescence ratio
1,CAATCGTTGC,1.02
2,ATTGCAATGA,1.03
3,AACCTATGTG,1.03
4,AGGGGTTCCT,1.02
5,AGGTAGTGTT,1.06
6,AAACTACGG,1.05
7,TTTACGGAA,1.06
8,ATATCTTTGC,0.965
9,TGGCGCCGGC,0.878
10,TAAGAGGTCT,0.994
11,AATAGTTCTC,1
12,ACAGTGAAAC,1
13,GCTATGGCAT,0.985
14,ACAGGCTTAT,0.986
15,CGTACTCATC,1.06
16,GAGGTGCGTG,0.968
17,CCTTGGCGAG,1.18
18,GTGATGGCTG,0.9
19,TCGGGGATGT,1.01
20,CGTTGGGAAT,0.978
21,TGGTAATTG,0.964
22,TACGTAATTC,1.8
23,TAAAAGACA,0.997
24,GCTATTACAT,1.02
25,ACTAAGTTTC,0.993
26,GGAGTCAGTA,1.02

row,Sequence,switch fluorescence ratio
1,CATGAGGATG,1.01
2,ATTGAACAGA,0.997
3,GATGTGCAA,1.02
4,AAACCGCGTC,2.15
5,CACTGTGGAA,1.02
6,GGGGAGCGGT,0.966
7,ATAAACTC,1.03
8,CGGCACGGCA,0.988
9,AGTGAGGCCC,1.04
10,GCGTTCCCAG,1.08
11,GTTACAATAG,1.05
12,CGCGGCCTAC,2.67
13,ACTCAATTTG,1.02
14,TGGTATAACA,1.04
15,ACCTTGGTAG,0.959
16,CGGGGATCCG,0.984
17,TTCATTCTGC,1.05
18,TTATTATTCT,0.995
19,CGCCGGCAAT,3.97
20,GTTGCTTTAG,0.974
21,GTGGTAGTGT,1.01
22,GAGCTCTGTG,1.01
23,TTTGTTATAG,1.06
24,AGTTCCAGA,0.951
25,AGGTGGGCCA,0.971
26,GAGTCTGGTG,0.987

row,Sequence,switch fluorescence ratio
1,TATGAAATGG,0.965
2,AAGAGTCCTT,1
3,GGTATAGGCA,0.998
4,GATACCTAAA,1.06
5,TTCCTTAGG,1.04
6,CCAAACGTAT,1.18
7,TTTCAAGGAG,1.06
8,CGTTGTGCCA,0.965
9,AAGCCCGCGC,0.983
10,TAGTCTACCT,1.13
11,GGAGACTTCT,0.991
12,TTGTTGAGGT,1.04
13,CAGGTCAC,1
14,CAAGTTCGG,0.913
15,CGAACGACAT,1.32
16,AGGCAGCGCG,1.04
17,ACTTTGATCT,1.02
18,GAAGTCAAGT,1
19,CGTCATGGTC,1.01
20,AATATTTATC,0.965
21,TTTTTGCG,1.02
22,CTGTGCCCAT,1
23,ACTCGTGCCT,1
24,TGTGACTATC,0.998
25,TAAGGGCTAA,1.04
26,GAGTATGTAT,0.937

row,Sequence,switch fluorescence ratio
1,GTTGTAAGCG,1
2,GATGGCTACA,0.983
3,GGTTCGCGTG,0.954
4,GGAGATTAGT,0.972
5,ATCTTCTTTG,1.02
6,CCGGGAGTC,1.34
7,GTCCGCTTAG,2.96
8,GGCATGGATG,0.969
9,AATACTACTC,1.11
10,CTCCTTAGTA,1.03
11,AATTATAGAA,1.02
12,TGTGGTCGTG,0.985
13,AACCGGGGCT,1.09
14,AAATTATT,0.988
15,ACATAATAAA,1.04
16,GGTTCATCTA,0.978
17,ATACCAAACA,1.29
18,ACTGGGCTGG,0.966
19,TTGAGGGCGA,1.02
20,GCTGGACTTT,1.02
21,CCATGGGCAC,1.07
22,GTGAAATTGC,0.931
23,TAGCGGCCG,1.03
24,CTCATAGTCT,1.01
25,CAATCCTAAT,0.966
26,TGGTATTTT,1

row,Sequence,switch fluorescence ratio
1,GGAGTGTA,0.907
2,TAGTCTACAA,1.07
3,AACGTAATTA,1.22
4,ATTCTTTTAG,0.999
5,CATACTCTCA,1.1
6,GGAAGACACG,1.03
7,AACAAAGTGG,1.02
8,TGTTGTACGA,1.04
9,GCGCATTGCC,1.17
10,GGCCAAACAG,1.01
11,CTGCGGATCG,0.98
12,ACTAGAACAA,1.02
13,TTACAAGGGG,1.04
14,ATAGGAAGAC,1.18
15,CAAATCATAT,0.935
16,CCATCCCTA,1.09
17,TTTAGTTTAT,1.71
18,CATGGTGGTG,1.01
19,GCTTTTATTT,0.994
20,AGTCCCTTTG,1.08
21,CAACTGCGAC,1.79
22,TATAACGCTA,1.16
23,GCTTAAACCG,1.05
24,TACGTAATCC,1.51
25,GCGGTGTCGC,0.974
26,ATTATGCACT,1.03

row,Sequence,switch fluorescence ratio
1,CGCCGAGACG,1.05
2,TCTACATAAA,1.01
3,CAGTGGCGAA,1.01
4,CCTATTGGCA,1.07
5,CGTTAGTGAG,0.999
6,CACAGGATAG,1.06
7,CAGGTGGCGT,0.99
8,TCGCAAACGA,1.22
9,TTTCGACTGC,1.02
10,AGTCGACCGG,1.06
11,TGGTCGTTGC,0.932
12,AACCTCTCT,1.04
13,ATTTTGACCG,1.08
14,ATATGATCCC,0.959
15,ACCGCATCGG,1.04
16,GAGGACGAGC,1.02
17,AAACGAAGT,1.03
18,ACAGTTTGCT,0.972
19,TCGTTTTTG,1.01
20,ATGGAAGTAA,1.02
21,CTAGTATTTA,0.983
22,ACCCCTACCT,1.18
23,CCTGAATCCT,1.03
24,TGAGTCAGAG,0.997
25,CGAGTTTCGA,1.01
26,TAGGATTCCC,0.949

row,Sequence,switch fluorescence ratio
1,CCGACGGGT,2.3
2,CTCTGTAATT,2.1
3,TGCCTCGCTT,1.01
4,TGCAAAGCTA,0.968
5,ACCATTGGCA,1
6,GAAACGCTGA,1.04
7,AGCTTTAAGG,1.04
8,GTCATCCCAC,1.14
9,AAGAGTGTCA,0.977
10,TCACGCATGG,1.3
11,CATCTTGCTT,1.05
12,TGGTCGGCG,0.954
13,CGCTCCTGGG,1.1
14,CATCAGTGAC,1.21
15,CTCATGTCGG,1.01
16,AATTCTCTTT,1.03
17,CGTGTTTCAG,1.01
18,TTAGGCTC,0.967
19,CGCTGTACGC,1.84
20,GAACTTTTTG,1
21,TGGCGGCGGT,0.973
22,CGTATTCGTT,0.994
23,TGTTAAGTG,0.95
24,TTTTCGTAAA,1.08
25,ACAAAATGGA,1.05
26,TTGAAGTGCA,0.996

row,Sequence,switch fluorescence ratio
1,AGTAAACGAA,0.975
2,AGGGGTCCTG,0.974
3,TGATAGGTAC,1.06
4,ACTAGATTA,1.01
5,ATGCGGGACA,1
6,ACAGACTCTG,0.996
7,TGTTCGTTGG,0.977
8,CGAGTTACAC,1.06
9,GTGGACAGCT,1.01
10,CAATGTGATA,0.944
11,GTAAGAATTT,0.994
12,AGGCTGATTA,1
13,TCGGCAGTTG,0.996
14,ATTTACTTAC,1.26
15,GTATACAAGA,1
16,CATTGAAGTA,0.989
17,GTGAAACTGT,1
18,AGAACCCGAC,1.5
19,GCTAGGAAAT,1
